pIC50: −log10 of the molar value. By IC50 is meant the dose at which the fit gives 50% viability; a limit (>, <) means that the fit lies beyond the doses tested. The AUC spans the tested range (256-fold, ending at the top dose) of the same fit; it is 1 without any effect and falls as sensitivity rises. For some assays here: Where the top dose is marked as inferred, it comes from the curve model; the source does not state it.
Columns and labels:
Assay in all cases: Viability of human cancer cell lines after 72 h of drug (GDSC screen)
17-AAG = compound: C=CCNC1=C2C[C@@H](C)C[C@H](OC)[C@H](O)[C@@H](C)/C=C(\C)[C@H](OC(N)=O)[C@@H](OC)/C=C\C=C(/C)C(=O)NC(=CC1=O)C2=O [17-AAG]; conditions: top dose 1 µM
Description: (§1)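 Human cancer cell lines in 384-well plates, medium with 10% serum, drug for 72 h over a 256-fold dose range (nine 2-fold or five 4-fold steps up to the top dose). Adherent lines were fixed and stained with the nucleic acid dye Syto60, suspension lines read with resazurin; signal relative to control wells, capped at 0 and 100%. One two-parameter sigmoid per drug and line, fitted in a mixed model over all curves with the slope shared within a line.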

TG101348 = compound: Cc1cnc(Nc2ccc(OCCN3CCCC3)cc2)nc1Nc1cccc(S(=O)(=O)NC(C)(C)C)c1 [TG101348]; conditions: top dose 10.24 µM
Description: as §1

CCT018159 = compound: CCc1cc(-c2n[nH]c(C)c2-c2ccc3c(c2)OCCO3)c(O)cc1O [CCT018159]; conditions: top dose 10 µM; top dose inferred
Description: as §1

BIX02189 = compound: CN(C)Cc1cccc(N=C(c2ccccc2)c2c(O)[nH]c3cc(C(=O)N(C)C)ccc23)c1 [BIX02189]; conditions: top dose 20 µM; top dose inferred
Description: as §1

Vismodegib = compound: CS(=O)(=O)c1ccc(C(=O)Nc2ccc(Cl)c(-c3ccccn3)c2)c(Cl)c1 [Vismodegib]; conditions: top dose 10 µM; top dose inferred
Description: as §1

Dimethyloxalylglycine = compound: COC(=O)CNC(=O)C(=O)OC [Dimethyloxalylglycine]; conditions: top dose 4000 µM; top dose inferred
Description: as §1

OSI-027 = compound: COc1cccc2cc(-c3nc([C@H]4CC[C@H](C(=O)O)CC4)n4ncnc(N)c34)[nH]c12 [OSI-027]; conditions: top dose 20 µM
Description: as §1

VX-11e = compound: Cc1cnc(Nc2ccc(F)cc2Cl)nc1-c1c[nH]c(C(=O)N[C@H](CO)c2cccc(Cl)c2)c1 [VX-11e]; conditions: top dose 5.12 µM; top dose inferred
Description: as §1

UNC1215 = compound: O=C(c1ccc(C(=O)N2CCC(N3CCCC3)CC2)c(Nc2ccccc2)c1)N1CCC(N2CCCC2)CC1 [UNC1215]; conditions: top dose 1 µM; top dose inferred
Description: as §1

Cell Line | AUC (17-AAG) | pIC50 (17-AAG) | AUC (TG101348) | pIC50 (TG101348) | AUC (CCT018159) | pIC50 (CCT018159) | AUC (BIX02189) | pIC50 (BIX02189) | AUC (Vismodegib) | pIC50 (Vismodegib) | AUC (Dimethyloxalylglycine) | pIC50 (Dimethyloxalylglycine) | AUC (OSI-027) | pIC50 (OSI-027) | AUC (VX-11e) | pIC50 (VX-11e) | AUC (UNC1215) | pIC50 (UNC1215)
HCC2218 (breast, suspension) | 0.67 | 6.68 | 0.963 | < 4.99 | 0.856 | < 5.00 | 0.955 | < 4.70 | 0.981 | < 5.00 | 0.94 | < 2.40 | 0.565 | 5.70 | 0.972 | < 5.29 | 0.947 | < 6.00
BB49-HNC (head and neck, adherent) | 0.471 | 7.30 | 0.916 | < 4.99 | 0.869 | < 5.00 | 0.968 | < 4.70 | 0.973 | < 5.00 | 0.627 | 3.19 | 0.972 | < 4.70 | 0.978 | < 5.29 | 0.971 | < 6.00
ML-2 (acute myeloid leukaemia, suspension) | 0.901 | < 6.00 | 0.616 | 5.89 | 0.972 | < 5.00 | 0.831 | 4.97 | 0.981 | < 5.00 | 0.436 | 3.77 | 0.125 | 7.01 | 0.72 | 5.91 | 0.986 | < 6.00
MDA-MB-361 (breast, adherent) | 0.381 | 7.53 | 0.949 | < 4.99 | 0.915 | < 5.00 | 0.985 | < 4.70 | 0.983 | < 5.00 | 0.767 | 2.83 | 0.725 | 5.27 | 0.98 | < 5.29 | 0.987 | < 6.00
DU-4475 (breast, suspension) | 0.717 | 6.65 | 0.863 | 5.20 | 0.936 | < 5.00 | 0.979 | < 4.70 | 0.986 | < 5.00 | 0.718 |  | 0.649 | 5.53 | 0.285 | 7.04 | 0.989 | < 6.00
COR-L279 (small cell lung carcinoma, suspension) | 0.988 | < 6.00 | 0.724 | 5.60 | 0.962 | < 5.00 | 0.933 | < 4.70 | 0.991 | < 5.00 | 0.835 | 2.65 | 0.089 | > 7.11 | 0.991 | < 5.29 | 0.975 | < 6.00
HDQ-P1 (breast, adherent) | 0.82 | 6.14 | 0.965 | < 4.99 | 0.905 | < 5.00 | 0.984 | < 4.70 | 0.984 | < 5.00 | 0.628 | 3.22 | 0.832 | 4.79 | 0.984 | < 5.29 | 0.983 | < 6.00
LN-18 (glioma, adherent) | 0.617 | 6.91 | 0.994 | < 4.99 | 0.929 | < 5.00 | 0.994 | < 4.70 | 0.994 | < 5.00 | 0.699 | 3.10 | 0.96 | < 4.70 | 0.994 | < 5.29 | 0.993 | < 6.00
RH-41 (rhabdomyosarcoma, adherent) | 0.827 | 6.32 | 0.81 | 5.36 | 0.971 | < 5.00 | 0.992 | < 4.70 | 0.975 | < 5.00 | 0.871 | 2.56 | 0.458 | 6.01 | 0.992 | < 5.29 | 0.991 | < 6.00
SF539 (glioma, adherent) | 0.454 | 7.32 | 0.845 | 5.20 | 0.897 | < 5.00 | 0.952 | < 4.70 | 0.971 | < 5.00 | 0.543 | 3.49 | 0.472 | 5.98 | 0.948 | < 5.29 | 0.972 | < 6.00
697 (lymphoblastic leukaemia, suspension) | 0.937 | < 6.00 | 0.318 | 6.65 | 0.887 | 5.14 | 0.794 | 5.14 | 0.962 | < 5.00 | 0.475 | 3.67 | 0.097 | 7.04 | 0.943 | < 5.29 | 0.99 | < 6.00
MDA-MB-231 (breast, adherent) | 0.979 | < 6.00 | 0.879 | < 4.99 | 0.75 | 5.46 | 0.985 | < 4.70 | 0.955 | < 5.00 | 0.552 | 3.46 | 0.789 | 5.03 | 0.985 | < 5.29 | 0.985 | < 6.00
Hs746T (stomach, adherent) | 0.852 | < 6.00 | 0.783 | 5.22 | 0.887 | < 5.00 | 0.892 | < 4.70 | 0.967 | < 5.00 | 0.837 | < 2.40 | 0.13 | > 7.11 | 0.956 | < 5.29 | 0.977 | < 6.00
NCI-H187 (small cell lung carcinoma, suspension) | 0.987 | < 6.00 | 0.822 | 5.18 | 0.978 | < 5.00 | 0.962 | < 4.70 | 0.983 | < 5.00 | 0.611 | 3.29 | 0.786 | 5.03 | 0.982 | < 5.29 | 0.985 | < 6.00
CAL-120 (breast, adherent) | 0.792 | 6.22 | 0.778 | 5.27 | 0.893 | < 5.00 | 0.864 | < 4.70 | 0.981 | < 5.00 | 0.647 | 3.14 | 0.308 | 6.51 | 0.968 | < 5.29 | 0.971 | < 6.00

— the supplement of paper PMC4967469
